Assay results published in article PMC11269665.
These are yes or no findings as the source states them, for the method shown. Binding seen in cells or lysates may run through a third protein. Some entries that bind do so weakly or less than the wild type. For some assays here: Tags and fused reporters may be left off the sequences shown.

The chains behind the UniProt entries cited, without tags or fusion partners.
UniProt Q9Y6K9: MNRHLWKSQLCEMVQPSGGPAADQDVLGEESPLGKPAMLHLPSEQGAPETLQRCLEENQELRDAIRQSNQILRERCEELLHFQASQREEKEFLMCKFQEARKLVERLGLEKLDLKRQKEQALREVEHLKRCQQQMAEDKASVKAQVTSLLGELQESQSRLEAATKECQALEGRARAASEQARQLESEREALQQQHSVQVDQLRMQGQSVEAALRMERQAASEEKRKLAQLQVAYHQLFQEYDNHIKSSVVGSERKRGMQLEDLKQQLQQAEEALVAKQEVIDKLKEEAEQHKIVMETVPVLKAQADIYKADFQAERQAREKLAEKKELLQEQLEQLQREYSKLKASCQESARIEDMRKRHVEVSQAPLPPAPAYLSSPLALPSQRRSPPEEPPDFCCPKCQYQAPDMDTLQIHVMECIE

B1: IKKα (endogenous), O15111 1-745 (protein)
chain: MERPPGLRPGAGGPWEMRERLGTGGFGNVCLYQHRELDLKIAIKSCRLELSTKNRERWCHEIQIMKKLNHANVVKACDVPEELNILIHDVPLLAMEYCSGGDLRKLLNKPENCCGLKESQILSLLSDIGSGIRYLHENKIIHRDLKPENIVLQDVGGKIIHKIIDLGYAKDVDQGSLCTSFVGTLQYLAPELFENKPYTATVDYWSFGTMVFECIAGYRPFLHHLQPFTWHEKIKKKDPKCIFACEEMSGEVRFSSHLPQPNSLCSLVVEPMENWLQLMLNWDPQQRGGPVDLTLKQPRCFVLMDHILNLKIVHILNMTSAKIISFLLPPDESLHSLQSRIERETGINTGSQELLSETGISLDPRKPASQCVLDGVRGCDSYMVYLFDKSKTVYEGPFASRSLSDCVNYIVQDSKIQLPIIQLRKVWAEAVHYVSGLKEDYSRLFQGQRAAMLSLLRYNANLTKMKNTLISASQQLKAKLEFFHKSIQLDLERYSEQMTYGISSEKMLKAWKEMEEKAIHYAEVGVIGYLEDQIMSLHAEIMELQKSPYGRRQGDLMESLEQRAIDLYKQLKHRPSDHSYSDSTEMVKIIVHTVQSQDRVLKELFGHLSKLLGCKQKIIDLLPKVEVALSNIKEADNTVMFMQGKRQKEIWHLLKIACTQSSARSLVGSSLEGAVTPQTSAWLPPTSAEHDHSLSCVVTPQDGETSAQMIEENLNCLGHLSTIIHEANEEQGNSMMNLDWSWLTE
B2: Flag-tagged KRT32 p.Arg115Gln (protein, UniProt Q14532 1-448)
chain: MTSSCCVTNNLQASLKSCPRPASVCSSGVNCRPELCLGYVCQPMACLPSVCLPTTFRPASCLSKTYLSSSCQAASGISGSMGPGSWYSEGAFNGNEKETMQFLNDRLASYLTRVQQLEQENAELESRIQEASHSQVLTMTPDYQSHFRTIEELQQKILCTKAENARMVVNIDNAKLAADDFRAKYEAELAMRQLVEADINGLRRILDDLTLCKADLEAQVESLKEELMCLKKNHEEEVGSLRCQLGDRLNIEVDAAPPVDLTRVLEEMRCQYEAMVEANRRDVEEWFNMQMEELNQQVATSSEQLQNYQSDIIDLRRTVNTLEIELQAQHSLRDSLENTLTESEARYSSQLAQMQCMITNVEAQLAEIRADLERQNQEYQVLLDVRARLEGEINTYRSLLENEDCKLPCNPCSTPSCTTCVPSPCVPRTVCVPRTVGMPCSPCPQGRY
B3: Flag-tagged KRT32 p.Arg203Cys (protein, UniProt Q14532 1-448)
chain: MTSSCCVTNNLQASLKSCPRPASVCSSGVNCRPELCLGYVCQPMACLPSVCLPTTFRPASCLSKTYLSSSCQAASGISGSMGPGSWYSEGAFNGNEKETMQFLNDRLASYLTRVRQLEQENAELESRIQEASHSQVLTMTPDYQSHFRTIEELQQKILCTKAENARMVVNIDNAKLAADDFRAKYEAELAMRQLVEADINGLCRILDDLTLCKADLEAQVESLKEELMCLKKNHEEEVGSLRCQLGDRLNIEVDAAPPVDLTRVLEEMRCQYEAMVEANRRDVEEWFNMQMEELNQQVATSSEQLQNYQSDIIDLRRTVNTLEIELQAQHSLRDSLENTLTESEARYSSQLAQMQCMITNVEAQLAEIRADLERQNQEYQVLLDVRARLEGEINTYRSLLENEDCKLPCNPCSTPSCTTCVPSPCVPRTVCVPRTVGMPCSPCPQGRY
B4: Flag-tagged KRT32 p.Cys229Arg (protein, UniProt Q14532 1-448)
chain: MTSSCCVTNNLQASLKSCPRPASVCSSGVNCRPELCLGYVCQPMACLPSVCLPTTFRPASCLSKTYLSSSCQAASGISGSMGPGSWYSEGAFNGNEKETMQFLNDRLASYLTRVRQLEQENAELESRIQEASHSQVLTMTPDYQSHFRTIEELQQKILCTKAENARMVVNIDNAKLAADDFRAKYEAELAMRQLVEADINGLRRILDDLTLCKADLEAQVESLKEELMRLKKNHEEEVGSLRCQLGDRLNIEVDAAPPVDLTRVLEEMRCQYEAMVEANRRDVEEWFNMQMEELNQQVATSSEQLQNYQSDIIDLRRTVNTLEIELQAQHSLRDSLENTLTESEARYSSQLAQMQCMITNVEAQLAEIRADLERQNQEYQVLLDVRARLEGEINTYRSLLENEDCKLPCNPCSTPSCTTCVPSPCVPRTVCVPRTVGMPCSPCPQGRY
B5: Flag-tagged KRT32 p.Glu303Lys (protein, UniProt Q14532 1-448)
chain: MTSSCCVTNNLQASLKSCPRPASVCSSGVNCRPELCLGYVCQPMACLPSVCLPTTFRPASCLSKTYLSSSCQAASGISGSMGPGSWYSEGAFNGNEKETMQFLNDRLASYLTRVRQLEQENAELESRIQEASHSQVLTMTPDYQSHFRTIEELQQKILCTKAENARMVVNIDNAKLAADDFRAKYEAELAMRQLVEADINGLRRILDDLTLCKADLEAQVESLKEELMCLKKNHEEEVGSLRCQLGDRLNIEVDAAPPVDLTRVLEEMRCQYEAMVEANRRDVEEWFNMQMEELNQQVATSSKQLQNYQSDIIDLRRTVNTLEIELQAQHSLRDSLENTLTESEARYSSQLAQMQCMITNVEAQLAEIRADLERQNQEYQVLLDVRARLEGEINTYRSLLENEDCKLPCNPCSTPSCTTCVPSPCVPRTVCVPRTVGMPCSPCPQGRY
B6: Flag-tagged KRT32 p.Ile313Val (protein, UniProt Q14532 1-448)
chain: MTSSCCVTNNLQASLKSCPRPASVCSSGVNCRPELCLGYVCQPMACLPSVCLPTTFRPASCLSKTYLSSSCQAASGISGSMGPGSWYSEGAFNGNEKETMQFLNDRLASYLTRVRQLEQENAELESRIQEASHSQVLTMTPDYQSHFRTIEELQQKILCTKAENARMVVNIDNAKLAADDFRAKYEAELAMRQLVEADINGLRRILDDLTLCKADLEAQVESLKEELMCLKKNHEEEVGSLRCQLGDRLNIEVDAAPPVDLTRVLEEMRCQYEAMVEANRRDVEEWFNMQMEELNQQVATSSEQLQNYQSDIVDLRRTVNTLEIELQAQHSLRDSLENTLTESEARYSSQLAQMQCMITNVEAQLAEIRADLERQNQEYQVLLDVRARLEGEINTYRSLLENEDCKLPCNPCSTPSCTTCVPSPCVPRTVCVPRTVGMPCSPCPQGRY
B7: His-KRT32 p.Arg203Cys (protein, UniProt Q14532 1-448)
chain: MTSSCCVTNNLQASLKSCPRPASVCSSGVNCRPELCLGYVCQPMACLPSVCLPTTFRPASCLSKTYLSSSCQAASGISGSMGPGSWYSEGAFNGNEKETMQFLNDRLASYLTRVRQLEQENAELESRIQEASHSQVLTMTPDYQSHFRTIEELQQKILCTKAENARMVVNIDNAKLAADDFRAKYEAELAMRQLVEADINGLCRILDDLTLCKADLEAQVESLKEELMCLKKNHEEEVGSLRCQLGDRLNIEVDAAPPVDLTRVLEEMRCQYEAMVEANRRDVEEWFNMQMEELNQQVATSSEQLQNYQSDIIDLRRTVNTLEIELQAQHSLRDSLENTLTESEARYSSQLAQMQCMITNVEAQLAEIRADLERQNQEYQVLLDVRARLEGEINTYRSLLENEDCKLPCNPCSTPSCTTCVPSPCVPRTVCVPRTVGMPCSPCPQGRY
B8: His-KRT32 p.Cys229Arg (protein, UniProt Q14532 1-448)
chain: MTSSCCVTNNLQASLKSCPRPASVCSSGVNCRPELCLGYVCQPMACLPSVCLPTTFRPASCLSKTYLSSSCQAASGISGSMGPGSWYSEGAFNGNEKETMQFLNDRLASYLTRVRQLEQENAELESRIQEASHSQVLTMTPDYQSHFRTIEELQQKILCTKAENARMVVNIDNAKLAADDFRAKYEAELAMRQLVEADINGLRRILDDLTLCKADLEAQVESLKEELMRLKKNHEEEVGSLRCQLGDRLNIEVDAAPPVDLTRVLEEMRCQYEAMVEANRRDVEEWFNMQMEELNQQVATSSEQLQNYQSDIIDLRRTVNTLEIELQAQHSLRDSLENTLTESEARYSSQLAQMQCMITNVEAQLAEIRADLERQNQEYQVLLDVRARLEGEINTYRSLLENEDCKLPCNPCSTPSCTTCVPSPCVPRTVCVPRTVGMPCSPCPQGRY
B9: His-KRT32 p.Glu303Lys (protein, UniProt Q14532 1-448)
chain: MTSSCCVTNNLQASLKSCPRPASVCSSGVNCRPELCLGYVCQPMACLPSVCLPTTFRPASCLSKTYLSSSCQAASGISGSMGPGSWYSEGAFNGNEKETMQFLNDRLASYLTRVRQLEQENAELESRIQEASHSQVLTMTPDYQSHFRTIEELQQKILCTKAENARMVVNIDNAKLAADDFRAKYEAELAMRQLVEADINGLRRILDDLTLCKADLEAQVESLKEELMCLKKNHEEEVGSLRCQLGDRLNIEVDAAPPVDLTRVLEEMRCQYEAMVEANRRDVEEWFNMQMEELNQQVATSSKQLQNYQSDIIDLRRTVNTLEIELQAQHSLRDSLENTLTESEARYSSQLAQMQCMITNVEAQLAEIRADLERQNQEYQVLLDVRARLEGEINTYRSLLENEDCKLPCNPCSTPSCTTCVPSPCVPRTVCVPRTVGMPCSPCPQGRY
B10: His-KRT32 p.Ile313Val (protein, UniProt Q14532 1-448)
chain: MTSSCCVTNNLQASLKSCPRPASVCSSGVNCRPELCLGYVCQPMACLPSVCLPTTFRPASCLSKTYLSSSCQAASGISGSMGPGSWYSEGAFNGNEKETMQFLNDRLASYLTRVRQLEQENAELESRIQEASHSQVLTMTPDYQSHFRTIEELQQKILCTKAENARMVVNIDNAKLAADDFRAKYEAELAMRQLVEADINGLRRILDDLTLCKADLEAQVESLKEELMCLKKNHEEEVGSLRCQLGDRLNIEVDAAPPVDLTRVLEEMRCQYEAMVEANRRDVEEWFNMQMEELNQQVATSSEQLQNYQSDIVDLRRTVNTLEIELQAQHSLRDSLENTLTESEARYSSQLAQMQCMITNVEAQLAEIRADLERQNQEYQVLLDVRARLEGEINTYRSLLENEDCKLPCNPCSTPSCTTCVPSPCVPRTVCVPRTVGMPCSPCPQGRY
B11: His-KRT32 p.Arg115Gln (protein, UniProt Q14532 1-448)
chain: MTSSCCVTNNLQASLKSCPRPASVCSSGVNCRPELCLGYVCQPMACLPSVCLPTTFRPASCLSKTYLSSSCQAASGISGSMGPGSWYSEGAFNGNEKETMQFLNDRLASYLTRVQQLEQENAELESRIQEASHSQVLTMTPDYQSHFRTIEELQQKILCTKAENARMVVNIDNAKLAADDFRAKYEAELAMRQLVEADINGLRRILDDLTLCKADLEAQVESLKEELMCLKKNHEEEVGSLRCQLGDRLNIEVDAAPPVDLTRVLEEMRCQYEAMVEANRRDVEEWFNMQMEELNQQVATSSEQLQNYQSDIIDLRRTVNTLEIELQAQHSLRDSLENTLTESEARYSSQLAQMQCMITNVEAQLAEIRADLERQNQEYQVLLDVRARLEGEINTYRSLLENEDCKLPCNPCSTPSCTTCVPSPCVPRTVCVPRTVGMPCSPCPQGRY

What follows are binders tested against NEMO (endogenous) (human (endogenous in primary keratinocytes, Ker-CT and skin)), Q9Y6K9 (assay: proximity ligation; Duolink PLA of IKKα with NEMO on fixed Ker-CT cells overexpressing KRT32 wildtype or mutations; foci per cell counted). Conditions: remark: other sources report otherwise.
B1 was tested, and the binding was “binds”.

The binders below were run against NEMO (endogenous) (human (endogenous in primary keratinocytes, Ker-CT and skin)) (UniProt Q9Y6K9) (assay: proximity ligation; Duolink PLA on fixed Ker-CT cells overexpressing Flag-tagged KRT32 wildtype or mutations; anti-Flag and anti-NEMO; foci per cell counted). Conditions: not given.
B2 was tested, and the binding was “binds”. With B3 the binding was “binds”. For B4, the binding was “binds”. For B5, the binding was “binds”. B6 was tested, and the binding was “binds”.

The binders below were run against GST-NEMO fusion protein (UniProt Q9Y6K9) (assay: pull-down; GST-NEMO fusion protein incubated with E. coli extracts containing WT or mutant His-KRT32; glutathione-agarose beads; Western blot; only the target purified). Conditions: not given.
B7 was tested, and the binding was “binds”. For B8, the binding was “binds”. In the case of B9, the binding is reported as “binds”. B10 was tested, and the binding was “binds”. With B11 the binding was “binds”.
